The values below come from the antibiotic and cytotoxicity screens of Wong et al. (2023).

The other results are listed elsewhere or left out.

The test system of one test is HSkMC. Nature of the test: cytotoxicity call (relative viability < 0.9). To be noted: 10 µM.
Another test relates to HepG2. The test is described as follows: cytotoxicity call (relative viability < 0.9). As to conditions: 10 µM.
For a further test, the system named is S. aureus RN4220. The test is described as follows: growth inhibition call (relative growth <= 0.2). As to conditions: 50 µM.

Consider `Cc1noc(C)c1NC(=O)N(C)C[C@H]1OCCCC[C@H](C)Oc2ccc(NC(=O)Cc3ccccc3)cc2C(=O)N([C@@H](C)CO)C[C@H]1C`, for which the cytotoxicity call with HSkMC and in the test with HepG2 was “inactive” in each case. In addition, in the test on S. aureus RN4220, the growth inhibition call was “inactive”.
As to `C[C@H]1CN([C@@H](C)CO)C(=O)Cc2cc(NC(=O)Cn3cnnn3)ccc2O[C@H]1CN(C)Cc1ccc(-c2ccccc2)cc1`, the cytotoxicity call with HSkMC and with HepG2 was “inactive” each time. Further, the growth inhibition call with S. aureus RN4220 was “inactive”.
`COc1ccc(S(=O)(=O)Nc2ccc3c(c2)C(=O)N([C@@H](C)CO)C[C@@H](C)[C@H](CN(C)C(=O)Nc2c(C)noc2C)OCCCC[C@@H](C)O3)cc1`: the cytotoxicity call in the test with HSkMC and in the test with HepG2 was “inactive” throughout. Also, in the test with S. aureus RN4220, the growth inhibition call was “inactive”.
Take `C[C@]12C[C@]3(O)O[C@@H](O1)[C@]1(COC(=O)c4ccccc4)[C@H]3C[C@@]12O[C@@H]1O[C@H](CO)[C@@H](O)[C@H](O)[C@H]1O`: the cytotoxicity call in the test on HSkMC and in the test with HepG2 was “inactive” each time. Moreover, in the test on S. aureus RN4220, the growth inhibition call is “inactive”.
For the compound `COc1ccc(S(=O)(=O)N(CC(=O)O)c2ccc(N(CC(=O)O)S(=O)(=O)c3ccc(OC)cc3)c3ccccc23)cc1`, the cytotoxicity call with HSkMC and with HepG2 was “inactive” throughout. For the same compound, the growth inhibition call in the test on S. aureus RN4220 is “inactive”.
For `Cc1noc(C)c1NC(=O)N(C)C[C@@H]1Oc2c(NS(=O)(=O)c3ccccc3)cccc2C(=O)N([C@H](C)CO)C[C@@H]1C`, the cytotoxicity call with HSkMC and in the test on HepG2 was “inactive” in each case. In addition, the growth inhibition call in the test on S. aureus RN4220 was “inactive”.
With `CNC(=O)CN(C#N)c1nc(N(C)C)nc(N(C)C)n1`, the cytotoxicity call in the test with HSkMC and with HepG2 was “inactive” in each case. In addition, the growth inhibition call in the test on S. aureus RN4220 was “inactive”.
`CCCCCCCCCCCCCCCC(=O)CCO`: the cytotoxicity call in the test with HSkMC and in the test on HepG2 was “inactive” each time. In the test on S. aureus RN4220, the growth inhibition call was “inactive”.
In the case of `COc1ccc(S(=O)(=O)N(C)C[C@@H]2Oc3ccc(NC(=O)NC(C)C)cc3CC(=O)N([C@@H](C)CO)C[C@H]2C)cc1`, the cytotoxicity call in the test on HSkMC and with HepG2 was “inactive” each time. Moreover, the growth inhibition call in the test on S. aureus RN4220 was “inactive”.
As for `OCc1ncc[nH]1`, the cytotoxicity call in the test on HSkMC and with HepG2 was “inactive” each time. The growth inhibition call with S. aureus RN4220 is “inactive”.
Regarding `C[C@@H]1CN([C@@H](C)CO)C(=O)c2cc(NS(=O)(=O)c3ccccc3)ccc2O[C@@H](C)CCCCO[C@@H]1CN(C)C(=O)Nc1ccccc1`, the cytotoxicity call in the test on HSkMC and with HepG2 was “inactive” throughout. The growth inhibition call in the test with S. aureus RN4220 was “inactive”.
As to `COC(=O)CCC(=O)CN`, the cytotoxicity call in the test on HSkMC and with HepG2 was “inactive” throughout. Further, in the test on S. aureus RN4220, the growth inhibition call is “inactive”.
With `C[C@H]1CN([C@@H](C)CO)C(=O)Cc2cc(NC(=O)Nc3ccc(C(F)(F)F)cc3)ccc2O[C@@H]1CN(C)Cc1ccc(C(F)(F)F)cc1`, the cytotoxicity call with HSkMC is “active”. The cytotoxicity call with HepG2 is “inactive”. Besides, the growth inhibition call in the test on S. aureus RN4220 is “inactive”.
On to `COc1ccc([C@H]2CC=CC[C@H](C)Oc3ccccc3C(=O)N(C)[C@@H](Cc3ccccc3)C(=O)N2)c(OC)c1`, for which the cytotoxicity call with HSkMC and with HepG2 was “inactive” throughout. The growth inhibition call in the test on S. aureus RN4220 was “inactive”.
In the case of `C[C@H](CO)N1C[C@H](C)[C@H](CN(C)S(=O)(=O)c2ccccc2)Oc2ccc(NC(=O)Cc3ccccc3)cc2CC1=O`, the cytotoxicity call with HSkMC and in the test with HepG2 was “inactive” throughout. Moreover, the growth inhibition call in the test on S. aureus RN4220 is “inactive”.
As for `C[C@H](CO)N1C[C@H](C)[C@H](CN(C)C(=O)Nc2ccc3c(c2)OCO3)OCCCC[C@H](C)Oc2ccc(NC(=O)Nc3ccc(C(F)(F)F)cc3)cc2C1=O`, the cytotoxicity call in the test on HSkMC and in the test on HepG2 was “inactive” each time. In addition, in the test with S. aureus RN4220, the growth inhibition call is “inactive”.
Turning to `COCC(=O)N(C)C[C@H]1Oc2cc(C#Cc3cccnc3)ccc2S(=O)(=O)N([C@@H](C)CO)C[C@@H]1C`, the cytotoxicity call with HSkMC and with HepG2 was “inactive” each time. Besides, the growth inhibition call in the test on S. aureus RN4220 is “inactive”.
For the compound `Cc1ccc(S(=O)(=O)N(C)C[C@@H]2Oc3ccc(NS(=O)(=O)c4cccs4)cc3C(=O)N([C@@H](C)CO)C[C@@H]2C)cc1`, the cytotoxicity call in the test with HSkMC and with HepG2 was “inactive” throughout. For the same compound, the growth inhibition call in the test on S. aureus RN4220 is “inactive”.
`C[C@@H]1CN([C@H](C)CO)C(=O)c2cc(NS(C)(=O)=O)ccc2O[C@@H](C)CCCCO[C@H]1CN(C)CC1CC1`: the cytotoxicity call in the test on HSkMC and with HepG2 was “inactive” in each case. Further, the growth inhibition call with S. aureus RN4220 is “inactive”.
Regarding `COc1cc2c(NC3CCN(C(C)C)CC3)nc(N3CCC(F)(F)CC3)nc2cc1OCCCN1CCCC1`, the cytotoxicity call in the test on HSkMC and in the test on HepG2 was “active” throughout. Besides, in the test with S. aureus RN4220, the growth inhibition call was “inactive”.
Turning to `O=C(O)Cn1nnnc1-c1ccsc1`, the cytotoxicity call with HSkMC and in the test on HepG2 was “inactive” in each case. The growth inhibition call with S. aureus RN4220 is “inactive”.
Turning to `Nc1nnc(CC(=O)N2CCCCC2)o1`, the cytotoxicity call in the test on HSkMC and in the test on HepG2 was “inactive” each time. Also, the growth inhibition call with S. aureus RN4220 was “inactive”.
For `C[C@H](CO)N1C[C@H](C)[C@H](CN(C)S(=O)(=O)c2ccccc2F)Oc2ncc(C#Cc3ccccc3)cc2C1=O`, the cytotoxicity call in the test with HSkMC and in the test with HepG2 was “inactive” each time. Also, the growth inhibition call in the test with S. aureus RN4220 is “inactive”.
For the compound `C=CCC[C@@H](Cc1ccc(F)cc1)C(=O)OC[C@@H](Cc1c[nH]c2ccccc12)NC(=O)[C@H](CC=C)CC(=O)N(CCO)Cc1ccccc1`, the cytotoxicity call in the test with HSkMC and with HepG2 was “active” each time. In the test on S. aureus RN4220, the growth inhibition call was “inactive”.
For the compound `C[C@@H]1CN([C@@H](C)CO)C(=O)Cc2cc(NC(=O)Nc3ccccc3)ccc2O[C@@H]1CN(C)Cc1ccc(Oc2ccccc2)cc1`, the cytotoxicity call in the test with HSkMC and with HepG2 was “active” in each case. For the same compound, in the test with S. aureus RN4220, the growth inhibition call was “inactive”.
With `Cc1noc(C)c1NC(=O)N(C)C[C@H]1OCCCC[C@H](C)Oc2ccc(NS(=O)(=O)c3ccc(F)cc3)cc2C(=O)N([C@H](C)CO)C[C@@H]1C`, the cytotoxicity call with HSkMC and in the test on HepG2 was “inactive” throughout. In addition, the growth inhibition call in the test with S. aureus RN4220 was “inactive”.
`COc1ccc(NC(=O)Nc2ccc3c(c2)C(=O)N([C@@H](C)CO)C[C@H](C)[C@H](CN(C)C(=O)Nc2cccc4ccccc24)O3)cc1`: in the test with HSkMC, the cytotoxicity call was “inactive”. In addition, the cytotoxicity call with HepG2 was “active”. For the same compound, in the test on S. aureus RN4220, the growth inhibition call is “inactive”.
As for `CC[C@@H](CO)NCCN[C@@H](CC)CO`, the cytotoxicity call in the test on HSkMC and in the test with HepG2 was “inactive” throughout. In addition, the growth inhibition call in the test on S. aureus RN4220 is “inactive”.
Consider `CO[C@@H]1CN(C)C(=O)c2cc(NC(=O)CC(F)(F)F)ccc2OC[C@@H](C)N(C(=O)C2CCOCC2)C[C@@H]1C`, for which the cytotoxicity call with HSkMC and with HepG2 was “inactive” each time. The growth inhibition call with S. aureus RN4220 is “inactive”.
In the case of `COc1ccc(S(=O)(=O)Nc2ccc3c(c2)C(=O)N([C@H](C)CO)C[C@@H](C)[C@H](CN(C)C(=O)Nc2ccccc2)OCCCC[C@H](C)O3)cc1`, the cytotoxicity call with HSkMC and with HepG2 was “inactive” in each case. Also, the growth inhibition call in the test on S. aureus RN4220 is “inactive”.
`CC(C)NC(=O)Nc1ccc2c(c1)CC(=O)N([C@H](C)CO)C[C@H](C)[C@H](CN(C)C(=O)Nc1ccc3c(c1)OCO3)O2`: the cytotoxicity call in the test with HSkMC and with HepG2 was “inactive” in each case. In addition, in the test with S. aureus RN4220, the growth inhibition call is “inactive”.
Consider `CCO[C@@H]1OC(C(=O)N2CCN(Cc3ccccc3)CC2)=C[C@H](c2ccc(C(F)(F)F)cc2)[C@H]1CCCOC(=O)NCCCCCC(=O)NO`, for which the cytotoxicity call in the test on HSkMC and in the test with HepG2 was “inactive” each time. Besides, the growth inhibition call in the test on S. aureus RN4220 is “inactive”.
In the case of `Cc1ccc(S(=O)(=O)Nc2ccc3c(c2)C(=O)N([C@H](C)CO)C[C@H](C)[C@H](CN(C)C(=O)NC(C)C)O3)cc1`, the cytotoxicity call in the test with HSkMC and in the test with HepG2 was “inactive” throughout. Further, in the test with S. aureus RN4220, the growth inhibition call was “inactive”.
As to `Cn1cnc(S(=O)(=O)N[C@H]2C=C[C@@H](CC(=O)NCC3CC3)O[C@@H]2CO)c1`, the cytotoxicity call in the test with HSkMC and with HepG2 was “inactive” each time. For the same compound, in the test on S. aureus RN4220, the growth inhibition call is “inactive”.
`C[C@@H]1CCCCO[C@@H](CN(C)Cc2ccc(C(F)(F)F)cc2)[C@@H](C)CN([C@@H](C)CO)C(=O)c2cc(NC(=O)Cc3ccccc3)ccc2O1`: the cytotoxicity call with HSkMC is “inactive”. For the same compound, the cytotoxicity call with HepG2 is “active”. The growth inhibition call with S. aureus RN4220 is “inactive”.
`C[C@@H]1CN([C@@H](C)CO)C(=O)Cc2cc(NC(=O)CCCN(C)C)ccc2O[C@H]1CN(C)C(=O)Nc1ccc(F)cc1`: the cytotoxicity call in the test with HSkMC and with HepG2 was “inactive” in each case. Further, the growth inhibition call with S. aureus RN4220 is “inactive”.
As to `O=C(C[C@@H]1CC[C@@H]2[C@H](COC[C@@H](O)CN2C(=O)c2cnccn2)O1)N1CCN(c2ccccc2)CC1`, the cytotoxicity call with HSkMC and in the test with HepG2 was “inactive” in each case. Moreover, the growth inhibition call in the test with S. aureus RN4220 is “inactive”.
Take `COc1ccc(NC(=O)Nc2cccc3c2O[C@@H](CN(C)Cc2ccc(C(=O)Nc4ccccc4N)cc2)[C@@H](C)CN([C@@H](C)CO)C3=O)cc1`: the cytotoxicity call with HSkMC and in the test with HepG2 was “inactive” throughout. Moreover, the growth inhibition call in the test with S. aureus RN4220 is “inactive”.
Consider `C[C@H](CO)N1C[C@H](C)[C@H](CN(C)CC2CC2)Oc2ccc(NS(=O)(=O)c3cn(C)cn3)cc2CC1=O`, for which the cytotoxicity call with HSkMC and in the test with HepG2 was “inactive” in each case. Moreover, the growth inhibition call in the test with S. aureus RN4220 is “inactive”.
Take `COc1cccc(C#Cc2ccc([C@@H]3[C@H](CO)N4C(=O)CN(S(=O)(=O)c5ccccc5C)C[C@@H]34)cc2)c1`: the cytotoxicity call in the test on HSkMC and in the test with HepG2 was “inactive” throughout. Further, in the test with S. aureus RN4220, the growth inhibition call is “inactive”.
For the compound `COc1cccc(S(=O)(=O)Nc2ccc3c(c2)[C@H]2C[C@@H](CC(=O)NC4CCCCC4)O[C@@H](CO)[C@H]2O3)c1`, the cytotoxicity call in the test on HSkMC and with HepG2 was “inactive” in each case. The growth inhibition call with S. aureus RN4220 was “inactive”.
For `CCNC(=O)[C@H]1[C@H](CO)[C@H]2Cn3c(ccc(C4=CCCC4)c3=O)[C@@H]1N2S(=O)(=O)c1cn(C)cn1`, the cytotoxicity call with HSkMC and with HepG2 was “inactive” in each case. Further, the growth inhibition call with S. aureus RN4220 is “inactive”.
`COc1cccc(S(=O)(=O)Nc2ccc3c(c2)[C@H]2C[C@H](CC(=O)NCC(F)(F)F)O[C@H](CO)[C@H]2O3)c1`: the cytotoxicity call in the test with HSkMC and in the test with HepG2 was “inactive” throughout. Further, the growth inhibition call in the test on S. aureus RN4220 is “inactive”.
Consider `Cc1ccc(S(=O)(=O)N2C[C@@H](O)COC[C@H]3O[C@@H](CC(=O)NCCN4CCCCC4)CC[C@@H]32)cc1`, for which the cytotoxicity call in the test on HSkMC and in the test on HepG2 was “inactive” throughout. Besides, the growth inhibition call in the test on S. aureus RN4220 was “inactive”.
Consider `C[C@@H]1CN([C@@H](C)CO)C(=O)c2cccc(NS(=O)(=O)c3cn(C)cn3)c2O[C@H]1CN(C)C(=O)Nc1ccc(F)cc1`, for which the cytotoxicity call in the test on HSkMC (human skeletal muscle cells) and in the test with HepG2 was “inactive” each time. For the same compound, in the test on S. aureus RN4220, the growth inhibition call is “inactive”.
